# Measured values reported in the supplement of paper PMC8728848.
# Some of the results follow.
# B1: MAL-II (Maackia amurensis), P93248 (protein)
# chain: ATSNSKPTQVLLATFLTFFFLLLNNVNSSDELSFTINNFVPNEADLLFQGEASVSSTGVLQLTRVENGQPQQYSVGRALYAAPVRIWDNTTGSVASFSTSFTFVVKAPNPTITSDGLAFFLAPPDSQIPSGRVSKYLGLFNNSNSDSSNQIVAVEFDTYFGHSYDPWDPNYRHIGIDVNGIESIKTVQWDWINGGVAFATITYLAPNKTLIASLVYPSNQTSFIVAASVDLKEILPEWVRVGFSAATGYPTQVETHDVLSWSFTSTLEANSDAATENNVHIARYTA
# Columns and labels:
# Experiment in all cases: glycan array binding signal (z-score within array); higher = stronger binding
# Settings in all cases: glycan notation: IUPAC condensed, linker removed
# [1] = target: Fuc(a1-2)[GalNAc(a1-3)]Gal(b1-3)GalNAc(b1-3)Gal(a1-4)Gal(b1-4)Glc
# Method in brief: (§1)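 Glycan array binding is given as a within-array Z-score, which can be read as non-binding when negative. The arrays, 3228 of them, came from the Consortium for Functional Glycomics database and were retained only where the protein sequence was available. Z-scores were averaged across arrays of the same protein sequence at different concentrations or buffers and across linkers.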
# [2] = target: Fuc(a1-2)[GalNAc(a1-3)]Gal(b1-3)GlcNAc
# Method in brief: as §1
# [3] = target: Fuc(a1-2)[GalNAc(a1-3)]Gal(b1-3)GlcNAc(b1-2)Man(a1-3)[Fuc(a1-2)[GalNAc(a1-3)]Gal(b1-3)GlcNAc(b1-2)Man(a1-6)]Man(b1-4)GlcNAc(b1-4)GlcNAc
# Method in brief: as §1
# [4] = target: Fuc(a1-2)[GalNAc(a1-3)]Gal(b1-3)GlcNAc(b1-2)Man(a1-3)[Fuc(a1-2)[GalNAc(a1-3)]Gal(b1-3)GlcNAc(b1-2)Man(a1-6)]Man(b1-4)GlcNAc(b1-4)[Fuc(a1-6)]GlcNAc
# Method in brief: as §1
# [5] = target: Fuc(a1-2)[GalNAc(a1-3)]Gal(b1-3)GlcNAc(b1-3)GalNAc
# Method in brief: as §1
# [6] = target: Fuc(a1-2)[GalNAc(a1-3)]Gal(b1-3)GlcNAc(b1-6)GalNAc
# Method in brief: as §1
# [7] = target: Fuc(a1-2)[GalNAc(a1-3)]Gal(b1-4)Glc
# Method in brief: as §1
# [8] = target: Fuc(a1-2)[GalNAc(a1-3)]Gal(b1-4)GlcNAc
# Method in brief: as §1
# [9] = target: Fuc(a1-2)[GalNAc(a1-3)]Gal(b1-4)GlcNAc(b1-2)Man
# Method in brief: as §1
# [10] = target: Fuc(a1-2)[GalNAc(a1-3)]Gal(b1-4)GlcNAc(b1-2)Man(a1-3)[Fuc(a1-2)[GalNAc(a1-3)]Gal(b1-4)GlcNAc(b1-2)Man(a1-6)]Man(b1-4)GlcNAc(b1-4)GlcNAc
# Method in brief: as §1
# [11] = target: Fuc(a1-2)[GalNAc(a1-3)]Gal(b1-4)GlcNAc(b1-2)Man(a1-3)[Fuc(a1-2)[GalNAc(a1-3)]Gal(b1-4)GlcNAc(b1-2)Man(a1-6)]Man(b1-4)GlcNAc(b1-4)[Fuc(a1-6)]GlcNAc
# Method in brief: as §1
# [12] = target: Fuc(a1-2)[GalNAc(a1-3)]Gal(b1-4)GlcNAc(b1-3)Gal(b1-4)GlcNAc
# Method in brief: as §1
# [13] = target: Fuc(a1-2)[GalNAc(a1-3)]Gal(b1-4)GlcNAc(b1-3)Gal(b1-4)GlcNAc(b1-3)Gal(b1-4)GlcNAc
# Method in brief: as §1
# [14] = target: Fuc(a1-2)[GalNAc(a1-3)]Gal(b1-4)GlcNAc(b1-3)GalNAc
# Method in brief: as §1
# [15] = target: Fuc(a1-2)[GalNAc(a1-3)]Gal(b1-4)GlcNAc(b1-3)[Fuc(a1-2)[GalNAc(a1-3)]Gal(b1-4)GlcNAc(b1-6)]GalNAc
# Method in brief: as §1
# [16] = target: Fuc(a1-2)[GalNAc(a1-3)]Gal(b1-4)GlcNAc(b1-6)GalNAc
# Method in brief: as §1
# [17] = target: Fuc(a1-2)[GalNAc(a1-3)]Gal(b1-4)[Fuc(a1-3)]GlcNAc
# Method in brief: as §1
# [18] = target: Fuc(a1-2)[GalNAc(a1-3)]Gal(b1-4)[Fuc(a1-3)]GlcNAc(b1-3)GalNAc
# Method in brief: as §1
# [19] = target: Fuc(a1-2)[GalNAc(a1-4)]Gal(b1-4)GlcNAc
# Method in brief: as §1
# [20] = target: Fuc(a1-2)[GalNAc(b1-3)]Gal
# Method in brief: as §1
# Fuc(a1-3)GlcNAc = target: Fuc(a1-3)GlcNAc
# Method in brief: as §1
# [21] = target: Fuc(a1-3)[Gal(b1-4)]Glc6S
# Method in brief: as §1
# [22] = target: Fuc(a1-3)[Gal(b1-4)]GlcNAc
# Method in brief: as §1
# [23] = target: Fuc(a1-3)[Gal(b1-4)]GlcNAc(b1-2)Man
# Method in brief: as §1
# [24] = target: Fuc(a1-3)[Gal(b1-4)]GlcNAc(b1-2)Man(a1-3)[Fuc(a1-3)[Gal(b1-4)]GlcNAc(b1-2)Man(a1-6)]Man(b1-4)GlcNAc(b1-4)GlcNAc
# Method in brief: as §1
# [25] = target: Fuc(a1-3)[Gal(b1-4)]GlcNAc(b1-2)Man(a1-3)[Fuc(a1-3)[Gal(b1-4)]GlcNAc(b1-2)Man(a1-6)]Man(b1-4)GlcNAc(b1-4)[Fuc(a1-6)]GlcNAc
# Method in brief: as §1
# [26] = target: Fuc(a1-3)[Gal(b1-4)]GlcNAc(b1-3)Gal(b1-3)[Fuc(a1-4)]GlcNAc
# Method in brief: as §1
# [27] = target: Fuc(a1-3)[Gal(b1-4)]GlcNAc(b1-3)Gal(b1-4)[Fuc(a1-3)]GlcNAc
# Method in brief: as §1
# [28] = target: Fuc(a1-3)[Gal(b1-4)]GlcNAc(b1-3)Gal(b1-4)[Fuc(a1-3)]GlcNAc(b1-3)Gal(b1-4)[Fuc(a1-3)]GlcNAc
# Method in brief: as §1
# [29] = target: Fuc(a1-3)[Gal(b1-4)]GlcNAc(b1-3)GalNAc
# Method in brief: as §1
# [30] = target: Fuc(a1-3)[Gal(b1-4)]GlcNAc(b1-4)Gal(b1-4)[Fuc(a1-3)]GlcNAc
# Method in brief: as §1
# [31] = target: Fuc(a1-3)[Gal(b1-4)]GlcNAc(b1-4)Gal(b1-4)[Fuc(a1-3)]GlcNAc(b1-4)Gal(b1-4)[Fuc(a1-3)]GlcNAc
# Method in brief: as §1
# [32] = target: Fuc(a1-3)[Gal(b1-4)]GlcNAc(b1-6)GalNAc
# Method in brief: as §1
# [33] = target: Fuc(a1-3)[Gal(b1-4)]GlcNAc(b1-6)[Gal(b1-3)GlcNAc(b1-3)]Gal(b1-4)Glc
# Method in brief: as §1
# [34] = target: Fuc(a1-3)[Gal(b1-4)]GlcNAc6S
# Method in brief: as §1
# [35] = target: Fuc(a1-3)[Gal3S(b1-4)]Glc
# Method in brief: as §1
# [36] = target: Fuc(a1-3)[Gal3S(b1-4)]GlcNAc
# Method in brief: as §1
# [37] = target: Fuc(a1-3)[Gal3S(b1-4)]GlcNAc6S
# Method in brief: as §1
# [38] = target: Fuc(a1-3)[GalNAc(b1-4)]GlcNAc
# Method in brief: as §1
# [39] = target: Fuc(a1-3)[GalNAc(b1-4)]GlcNAc6S
# Method in brief: as §1
# Fuc(a1-4)GlcNAc = target: Fuc(a1-4)GlcNAc
# Method in brief: as §1
# Fuc(b1-3)GlcNAc = target: Fuc(b1-3)GlcNAc
# Method in brief: as §1
# Gal(a1-2)Gal = target: Gal(a1-2)Gal
# Method in brief: as §1
# Gal(a1-3)Gal = target: Gal(a1-3)Gal
# Method in brief: as §1
# Gal(a1-3)Gal(b1-3)GlcNAc = target: Gal(a1-3)Gal(b1-3)GlcNAc
# Method in brief: as §1
binder,measurement,setting,value
B1,glycan array binding signal (z-score),[1],-0.188
same,glycan array binding signal (z-score),[2],-0.208
same,glycan array binding signal (z-score),[3],-0.184
same,glycan array binding signal (z-score),[4],-0.256
same,glycan array binding signal (z-score),[5],-0.074
same,glycan array binding signal (z-score),[6],-0.266
same,glycan array binding signal (z-score),[7],-0.237
same,glycan array binding signal (z-score),[8],-0.223
same,glycan array binding signal (z-score),[9],-0.258
same,glycan array binding signal (z-score),[10],-0.255
same,glycan array binding signal (z-score),[11],-0.042
same,glycan array binding signal (z-score),[12],-0.177
same,glycan array binding signal (z-score),[13],-0.106
same,glycan array binding signal (z-score),[14],-0.13
same,glycan array binding signal (z-score),[15],-0.226
same,glycan array binding signal (z-score),[16],-0.23
same,glycan array binding signal (z-score),[17],-0.057
same,glycan array binding signal (z-score),[18],1.84
same,glycan array binding signal (z-score),[19],-0.242
same,glycan array binding signal (z-score),[20],-0.209
same,glycan array binding signal (z-score),Fuc(a1-3)GlcNAc,-0.246
same,glycan array binding signal (z-score),[21],-0.152
same,glycan array binding signal (z-score),[22],-0.236
same,glycan array binding signal (z-score),[23],-0.179
same,glycan array binding signal (z-score),[24],-0.147
same,glycan array binding signal (z-score),[25],0.714
same,glycan array binding signal (z-score),[26],-0.178
same,glycan array binding signal (z-score),[27],-0.217
same,glycan array binding signal (z-score),[28],-0.085
same,glycan array binding signal (z-score),[29],-0.171
same,glycan array binding signal (z-score),[30],-0.23
same,glycan array binding signal (z-score),[31],-0.249
same,glycan array binding signal (z-score),[32],-0.082
same,glycan array binding signal (z-score),[33],-0.034
same,glycan array binding signal (z-score),[34],-0.222
same,glycan array binding signal (z-score),[35],-0.231
same,glycan array binding signal (z-score),[36],-0.195
same,glycan array binding signal (z-score),[37],0.328
same,glycan array binding signal (z-score),[38],-0.187
same,glycan array binding signal (z-score),[39],-0.208
same,glycan array binding signal (z-score),Fuc(a1-4)GlcNAc,-0.241
same,glycan array binding signal (z-score),Fuc(b1-3)GlcNAc,-0.216
same,glycan array binding signal (z-score),Gal(a1-2)Gal,-0.208
same,glycan array binding signal (z-score),Gal(a1-3)Gal,-0.164
same,glycan array binding signal (z-score),Gal(a1-3)Gal(b1-3)GlcNAc,-0.205
